Measurements from ChEMBL document CHEMBL4888484, “Replenishing the malaria drug discovery pipeline: Screening and hit evaluation of the MMV Hit Generation Library 1 (HGL1) against asexual blood stage Plasmodium falciparum ,using a nano luciferase reporter read-out” (2022).
Out of some 150,000 compounds screened, about 540 (0.36%) showed an effect of 50% or more. The list shows a part of the results.

Test system: Plasmodium falciparum
Assay: Primary screen in NF54 nanoGlo assay, in single point, at 2uM, 72h; a lower Z score goes with more inhibition
Type: functional, Erythrocyte
Details: timepoint 72 hour

With `O=C1CO[C@H]2CCN(Cc3cccc4ccoc34)C[C@@H]2N1` as the compound, how does the “% Inhibition” value read?
Its value is -1%.

What about the Z score of the same compound?
Its Z score is 0.24.

Which results are given for `Cc1ccc(-c2noc(N3CCN4C(=O)C(=O)NC[C@H]4C3)n2)cc1`?
% Inhibition: -17%; Z score: 2.26

For `O=S(=O)(c1ccccc1)N1C2C=CC(C2)C1(C(F)(F)F)C(F)(F)F` (stereo not drawn), which “% Inhibition” value is on record?
Its value is -9%.

What about the Z score of the same compound?
The Z score was 0.93.

What does the source list for `Cc1nnc(O)nc1Nc1ccc(Cl)c(Cl)c1`?
% Inhibition: -13%; Z score: 1.18

With `O=C(c1cccc(-c2cn[nH]c2)c1)N1CCN(c2ccccn2)CC1` as the compound, how does the “% Inhibition” value read?
Its value is -6%.

And the Z score?
Its Z score is 0.97.

`CC(C)NC(=O)N(Cc1cccc(Cl)c1)C[C@H]1CC(c2ccccc2Cl)=NO1` was tested. Which “% Inhibition” value did it give?
Its value is -9%.

What about the Z score of the same compound?
The Z score was 1.32.

How did the “% Inhibition” value turn out when `CCc1csc(-c2ccc(S(=O)(=O)Nc3ccc(C)c(C)c3)s2)n1` was run?
Its value is -6%.

What about the Z score of the same compound?
Its Z score is 1.07.

What does the source list for `Cn1c(N2CCC(C(=O)NCc3cccs3)CC2)cc(=O)n(C)c1=O`?
% Inhibition: -11%; Z score: 1.66

Which “% Inhibition” value does the source give for `CCn1ncc(CNC(=O)[C@H](C)n2ccnc2C)c1C` here?
The value was -10%.

What about the Z score of the same compound?
Its Z score is 1.01.

`Cn1c(=O)c2c(ncn2CC(=O)c2ccc3c(c2)OCCO3)n(C)c1=O` was tested. Which “% Inhibition” value did it give?
The value was -14%.

And the Z score?
The Z score was 1.93.

Which “% Inhibition” value does the source give for `Cc1ncn(CC(=O)N2CCC(c3nnc(-c4ccc(F)cc4)o3)CC2)c(=O)c1C` here?
The value was -14%.

And the Z score?
Its Z score is 1.62.

How did the “% Inhibition” value turn out when `Cc1cccc(-c2ncc(CN3CCCN(S(=O)(=O)N4CCCC4)CC3)cn2)c1` was run?
Its value is -19%.

And the Z score?
The Z score was 3.13.

Which “% Inhibition” value does the source give for `CN(C)c1nc2cc(NC(=O)c3ccco3)ccc2o1` here?
The value was -24%.

What about the Z score of the same compound?
The Z score was 4.64.

With `O=C(NCC1(CN2CCOCC2)CC1)Nc1cccc(-c2cscn2)c1` as the compound, how does the “% Inhibition” value read?
Its value is 0%.

What about the Z score of the same compound?
Its Z score is 0.08.

For `Cc1cc(C)nc(NC(=O)N(CCO)C2CC2)c1`, which “% Inhibition” value is on record?
Its value is -11%.

What about the Z score of the same compound?
Its Z score is 1.07.

Which results are given for `C[C@H](NC(=O)c1nc(C2CC2)nn1C)c1ccc(OC(F)F)cc1`?
% Inhibition: -3%; Z score: 0.54

For `Cc1noc(C)c1CCCN[C@@H](C)c1cccc(O)c1`, which “% Inhibition” value is on record?
Its value is -4%.

What about the Z score of the same compound?
The Z score was 0.37.

For `COc1ccc(-c2noc(C3(c4cccc(Cl)c4)CCOCC3)n2)cc1`, which “% Inhibition” value is on record?
Its value is -7%.

What about the Z score of the same compound?
The Z score was 0.98.

`CC1CN(C(=O)c2cccn(C)c2=O)CC(C)N1` (stereo not drawn) was tested. Which “% Inhibition” value did it give?
The value was 12%.

What about the Z score of the same compound?
Its Z score is -1.71.

Which “% Inhibition” value does the source give for `Fc1cccc(Cl)c1CNc1cc(-c2ccncc2)nc2ccnn12` here?
The value was -4%.

And the Z score?
Its Z score is 0.44.

With `Cc1cc(O)ccc1C(=O)N[C@H](c1cnn(C)c1)C1CC(O)C1` (stereo partly drawn) as the compound, how does the “% Inhibition” value read?
The value was 5%.

And the Z score?
The Z score was -1.01.

How did the “% Inhibition” value turn out when `Nc1ccc(-c2cc(C(=O)N3CCOCC3)ccn2)cn1` was run?
Its value is -7%.

What about the Z score of the same compound?
The Z score was 1.05.

What does the source list for `Cc1ccc(Oc2cnn(-c3ccc(F)cc3)c(=O)c2Nc2cccc(C(=O)N[C@@H](C)c3ccccc3)c2)cc1`?
% Inhibition: -7%; Z score: 0.65

How did the “% Inhibition” value turn out when `O=C(c1ccc(Cn2cc(Br)cn2)o1)N1CCC12CCC2` was run?
The value was -17%.

What about the Z score of the same compound?
Its Z score is 3.15.

Which results are given for `COc1ccnc(NCCc2nnc3n2CCN(C)C3=O)n1`?
% Inhibition: -5%; Z score: 0.87

For `CN(C)C(=O)N1CCC(c2nc(Cc3cccs3)no2)CC1`, which “% Inhibition” value is on record?
The value was -3%.

And the Z score?
Its Z score is 0.36.

`O=C(Nc1ccccc1)Nc1nc2c(s1)CCCCCCCCCC2` was tested. Which “% Inhibition” value did it give?
The value was 44%.

And the Z score?
Its Z score is -5.02.

For `O=C(Cn1nc(C2CC2)ccc1=O)Nc1ncccc1O`, which “% Inhibition” value is on record?
Its value is 15%.

And the Z score?
The Z score was -1.96.

Which “% Inhibition” value does the source give for `Cc1ccccc1Cn1nc(C)c(NC(=O)c2cc(-c3ccc4c(c3)OCO4)on2)c1C` here?
The value was -7%.

And the Z score?
Its Z score is 0.99.

`COCCC(=O)N1CC2CC1CS2(=O)=O` (stereo not drawn) was tested. Which “% Inhibition” value did it give?
Its value is -11%.

And the Z score?
Its Z score is 1.23.

Which “% Inhibition” value does the source give for `O=C(c1nc2ccc(F)cc2[nH]1)N1C[C@H]2CCC[C@@H](C2)C1` here?
Its value is -6%.

What about the Z score of the same compound?
Its Z score is 1.17.

Which “% Inhibition” value does the source give for `Cc1nn(-c2ccccc2)c(Oc2ccc(Cl)cc2)c1CN(C(=O)NC(C)(C)C)C1CC1` here?
The value was -1%.

What about the Z score of the same compound?
The Z score was 0.09.

How did the “% Inhibition” value turn out when `C[C@@H](c1ccco1)N(C)C(=O)NCC(C)(C)CCS(C)(=O)=O` was run?
The value was -13%.

And the Z score?
Its Z score is 2.17.

Which “% Inhibition” value does the source give for `COc1cc(OC)cc(C(=O)N2CCCN(c3nc(CC(C)C)nc4c3cnn4-c3ccccc3)CC2)c1` here?
The value was -2%.

And the Z score?
The Z score was 0.27.

Which “% Inhibition” value does the source give for `Cc1cccc(C2(C(=O)N(C)c3nnc(C)s3)CCCCC2)c1` here?
Its value is 2%.

And the Z score?
Its Z score is -0.16.

Which results are given for `CCOCCCNC(=O)N1CC[C@H](c2nc(-c3cccn3C)no2)C1`?
% Inhibition: -12%; Z score: 1.61

`O=C(CNC(=O)C1CCCCC1)OCc1nnsc1Cl` was tested. Which “% Inhibition” value did it give?
The value was -2%.

And the Z score?
The Z score was 0.23.

For `Cc1ccc([C@H]2CN(C(=O)c3ccncc3F)C[C@@H]2N(C)C)cc1`, which “% Inhibition” value is on record?
The value was -6%.

And the Z score?
Its Z score is 0.61.

With `COc1ccc2[nH]c3c(c2c1)CCN(C(=O)c1cc(Cl)cc(Cl)c1)[C@@H]3c1ccccc1OC` as the compound, how does the “% Inhibition” value read?
The value was -11%.

And the Z score?
Its Z score is 1.21.

Which results are given for `COc1ccc(CNCc2cccc(OCc3ccc(Cl)cc3)c2)cc1`?
% Inhibition: -32%; Z score: 3.71

For `Oc1cccc(C2Nc3ccc(Cl)cc3C3OCCC23)c1` (stereo not drawn), which “% Inhibition” value is on record?
The value was -12%.

And the Z score?
Its Z score is 1.44.

`Cc1noc(CCN[C@@H](C)c2ccc(-n3cnnn3)cc2)n1` was tested. Which “% Inhibition” value did it give?
Its value is -6%.

What about the Z score of the same compound?
Its Z score is 1.08.

What does the source list for `COc1cnc(N(C)C(=O)CCC2CCOCC2)nc1`?
% Inhibition: -12%; Z score: 1.58

What does the source list for `Nc1ccc(OCC(F)(F)F)c(F)c1`?
% Inhibition: 25%; Z score: -2.86

How did the “% Inhibition” value turn out when `Cc1cnn([C@H]2CCCN(c3ccnc(CO)c3)C2)c1` was run?
Its value is -12%.

And the Z score?
The Z score was 1.24.

For `Cc1ccc(NC(=O)c2cccc(N3C[C@@H](C(=O)Nc4ccc(C)cc4F)CC3=O)c2)cc1`, which “% Inhibition” value is on record?
The value was -26%.

What about the Z score of the same compound?
Its Z score is 2.56.

Which results are given for `COc1cc(OC)nc(N[C@@H]2COCC[C@@H]2OCc2c(C)noc2C)n1`?
% Inhibition: -10%; Z score: 1.77

For `CCOc1ncccc1-c1cc(NC2CC2)nc(N)n1`, which “% Inhibition” value is on record?
Its value is -1%.

What about the Z score of the same compound?
Its Z score is 0.16.

For `Cc1cn(Cc2ncnn2C2CCCCC2)c(=O)[nH]c1=O`, which “% Inhibition” value is on record?
Its value is -11%.

What about the Z score of the same compound?
Its Z score is 1.39.

For `CNC(=O)c1nsc(C(=O)OC)c1N`, which “% Inhibition” value is on record?
Its value is -4%.

What about the Z score of the same compound?
The Z score was 0.44.

For `Cn1c(C(=O)Nc2cc(F)ccc2NC(=O)c2ccccn2)cc(Cl)c1Cl`, which “% Inhibition” value is on record?
The value was -27%.

And the Z score?
The Z score was 2.71.

Which “% Inhibition” value does the source give for `C[C@]1(c2nc(C3CC3)no2)CCCN(C(=O)Cc2ccsc2)C1` here?
Its value is 12%.

And the Z score?
Its Z score is -1.44.

How did the “% Inhibition” value turn out when `C[C@@H](c1cccs1)N(C)C(=O)COn1nnc2ccccc21` was run?
Its value is -9%.

And the Z score?
The Z score was 1.74.

With `CN(C)c1ncc(CN[C@]2(CO)COc3ccccc3C2)cn1` as the compound, how does the “% Inhibition” value read?
Its value is -3%.

And the Z score?
Its Z score is 0.38.
